Experimental data taken from PubChem BioAssay AID1030 (National Center for Advancing Translational Sciences (NCATS), 2008).
Out of some 220,000 compounds screened, about 16,000 (7.3%) were called active. Inconclusive results, whose numbers are uncertain, are shown with a selection of clear calls. Calls come from the whole dose curve; as a rule, active = well fitted inhibition curve with a large enough effect (not every such curve was filed as active); inconclusive = small, poorly fitted or top-dose-only effect, or another doubt; inactive = no such curve, though single readings can be large or run the other way. Potencies of inconclusive entries are left out as doubtful fits.

Target: Aldehyde dehydrogenase 1A1 (Homo sapiens) (UniProt P00352)
Sequence of UniProt P00352 (P00352 whole entry, looked up): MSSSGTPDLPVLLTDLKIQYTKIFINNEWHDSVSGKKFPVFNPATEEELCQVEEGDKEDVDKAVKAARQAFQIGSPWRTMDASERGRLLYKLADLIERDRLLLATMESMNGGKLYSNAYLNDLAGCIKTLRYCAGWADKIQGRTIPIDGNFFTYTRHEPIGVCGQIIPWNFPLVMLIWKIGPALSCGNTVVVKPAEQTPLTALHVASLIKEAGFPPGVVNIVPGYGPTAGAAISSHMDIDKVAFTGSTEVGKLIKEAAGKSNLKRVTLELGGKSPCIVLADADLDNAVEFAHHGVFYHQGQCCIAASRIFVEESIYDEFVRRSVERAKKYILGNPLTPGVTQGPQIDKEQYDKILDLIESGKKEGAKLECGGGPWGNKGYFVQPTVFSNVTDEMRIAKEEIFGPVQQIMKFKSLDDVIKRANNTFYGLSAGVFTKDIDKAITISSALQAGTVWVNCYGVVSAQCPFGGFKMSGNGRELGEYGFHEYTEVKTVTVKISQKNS
Assay: qHTS Assay for Inhibitors of Aldehyde Dehydrogenase 1 (ALDH1A1)
Settings: Purified ALDH1A1, NADH fluorescence, propionaldehyde substrate; series mostly up to 75.3 µM
Potency is the fitted concentration of half-maximal effect; tags give direction and shape of the fitted curve.

Row | SMILES | Potency
1 | CC(C)(C)NS(=O)(=O)c1ccc(NS(=O)(=O)c2ccc(F)cc2)cc1 | inconclusive [inhibitor, partial curve]
2 | O=C(NC1(C(F)(F)F)N=C2SCCN2C1=O)c1ccccc1F (stereo not drawn) | inactive
3 | O=C(Nc1ccc(Nc2ccccc2)cc1)c1ccc(Br)o1 | inactive
4 | CCCCCCCC(=O)NNC(=O)CC(=O)Nc1ccccc1C(=O)O | inactive
5 | CCC1(C)CC(CCN(Cc2ccco2)C(C)=O)(c2ccccc2)CCO1 (stereo not drawn) | inactive
6 | Cc1c(C#N)c(NC(=O)CCl)n(Cc2cccs2)c1C | inconclusive [inhibitor, single point]
7 | CC1(C)Cc2c(sc3c2c(=N)n(Cc2ccco2)c(=O)n3Cc2ccccc2)CO1 | inconclusive [inhibitor, single point]
8 | COc1cc(/C=N/n2c(=S)[nH]nc(C)c2=O)cc([N+](=O)[O-])c1O | inconclusive [inhibitor, partial curve]
9 | Cc1ccc(CNC(=O)C2CCN(S(=O)(=O)N3CCCCC3)CC2)cc1 | inconclusive [inhibitor, single point]
10 | COc1ccc(-n2c(SCC(N)=O)nc3sc4c(c3c2=O)CCC4)cc1 | inconclusive [inhibitor, partial curve]
11 | Cc1sc(-n2c(C)ccc2C)c(C#N)c1C | active: 22.4 µM
12 | O=C(/C=C/c1cccc(Cl)c1)NCCc1ccccc1 | inconclusive [inhibitor, full curve]
13 | CC(=O)N1CC23C=CC(CC2CC12CCCCCC2)O3 (stereo not drawn) | inconclusive [inhibitor, single point]
14 | COC(=O)CSCc1nc2ccccc2[nH]c1=O | inconclusive [inhibitor, partial curve]
15 | COc1cccc(NC(=O)N2CCN(c3cccc(C)c3)C(C)C2)c1 (stereo not drawn) | inconclusive [inhibitor, single point]
16 | C/C(CC(=O)N1CCN(C=O)CC1)=N\NC(=O)c1cc2ccccc2cc1O | inactive
17 | CCOC(=O)c1sc2nc(C)nc(Nc3ccc(OC)c(OC)c3)c2c1C | inactive
18 | COC(=O)c1nn(-c2ccccc2)c(Sc2ccc(OC)cc2)c1/C=N/O | inconclusive [inhibitor, partial curve]
19 | CC(C)(C)C(=O)CN1CCN(C2c3ccccc3-c3ccccc32)CC1 | inconclusive [inhibitor, single point]
20 | CC(=O)c1ccc(N2C(=O)C3C(C2=O)C(C(=O)c2ccc(Cl)cc2)N2CCCC32)cc1 (stereo not drawn) | inconclusive [inhibitor, single point]
21 | CCOC(=O)c1cnc(-n2nc(C)cc2C)nc1NC1CCCCC1 | active: 25.1 µM
22 | Cc1cccc(C)c1NC1=NC2(CCCCC2)N=C(N)N1 | inactive
23 | Cc1ccc(NC2=NCC(=O)N2Cc2ccccc2)c(C)c1 | inactive
24 | O=C1Nc2ccccc2C(=O)N2CCC[C@@H]12 | inactive

Row | SMILES | Potency
25 | CC1(C)Cc2c(c(N3CCOCC3)nc3sc4c(NCc5ccco5)nnnc4c23)CS1 | inconclusive [inhibitor, partial curve]
26 | Cc1nnc(NC(=O)CSc2nnc3scc(-c4ccc(C)c(C)c4)n23)s1 | inconclusive [inhibitor, single point]
27 | O=C(CCCCCn1c(=O)[nH]c2ccccc2c1=O)N1CCN(Cc2ccc3c(c2)OCO3)CC1 | inconclusive [inhibitor, single point]
28 | Fc1cc(F)c2nc(N3CCCCC3)sc2c1 | inconclusive [inhibitor, single point]
29 | CCOC(=O)c1ccc(Oc2cc(C)nc(SC)n2)cc1 | inactive
30 | Cc1ccc(C)n1CCN1CCN(C(=O)CC#N)CC1 | inconclusive [inhibitor, partial curve]
31 | COc1ccc(-n2nnc3c(=O)n(CC(=O)N4CCCCC4)cnc32)cc1 | inconclusive [inhibitor, single point]
32 | CN(CCO)c1cc(N2CCCCC2)c2nonc2c1[N+](=O)[O-] | active: 15.8 µM
33 | CN(C)S(=O)(=O)c1ccc(NC(=S)NC(=O)c2ccc(Br)o2)cc1 | active: 12.6 µM
34 | CN(C)C(=O)C1C2NC(=S)N(c3cccc(Cl)c3)C1(C)Oc1ccc(Cl)cc12 (stereo not drawn) | inactive
35 | C1CCc2c(nc3nnnn3c2NC2CCCC2)C1 | inactive
36 | CC1CCCN(C(=O)CSc2nc3ncccc3[nH]2)C1 (stereo not drawn) | inconclusive [inhibitor, partial curve]
37 | O=C(/C=C/c1ccc(S(=O)(=O)NCc2ccco2)cc1)N1CCN(c2ccccc2)CC1 | inactive
38 | C=CCn1c(CC#N)nnc1N1CCOCC1 | active: 8.91 µM
39 | COc1ccc(Cl)cc1NC(=S)NNC(=O)C1(C)CC1(Cl)Cl (stereo not drawn) | active: 28.2 µM
40 | CCn1nnnc1SCC(=O)c1ccc(C)cc1 | inconclusive [inhibitor, single point]
41 | CC1(C)c2ssc(=S)c2-c2ccccc2N1C(=O)c1ccco1 | inactive
42 | CC(C)OC(=O)CC(=O)CSc1nc2c(c(-c3cccs3)c1C#N)CCC2 | inconclusive [inhibitor, single point]
43 | O=C(CN1CCOCC1)N/N=C/c1ccc(-c2ccc(Br)cc2)o1 | inconclusive [inhibitor, single point]
44 | Cc1nc(N2CCC(C)CC2)c2oc3ccccc3c2n1 | inconclusive [inhibitor, single point]
45 | COC(=O)C(C)Sc1nc2c(c(=O)n1-c1ccccc1)SCC2 (stereo not drawn) | active: 3.16 µM
46 | O=C(CN1C(=O)NC2(CCCCCC2)C1=O)NCc1ccco1 | inconclusive [inhibitor, single point]
47 | COc1cc(/C=C2\SC(=O)NC2=O)ccc1Oc1ccc([N+](=O)[O-])cc1[N+](=O)[O-] | inconclusive [inhibitor, single point]
48 | O=[N+]([O-])c1ccc(NC(=S)NCCc2ccc(Cl)cc2)cc1 | inconclusive [inhibitor, single point]
